Results published in article PMC10648259.
Residue numbers refer to the chain shown, from its start. Results are given in words; binding and its absence hold for the method and conditions named. In cells and extracts the contact can be indirect. Some entries that bind do so weakly or less than the wild type. Where a sequence is shown, tags or fusion partners need not be part of it.

Key:
Flag-GBP2^K51A (mouse) = biological target: T1, Flag-GBP2^K51A (mouse) (UniProt Q9Z0E6); assay: co-IP
T1 sequence: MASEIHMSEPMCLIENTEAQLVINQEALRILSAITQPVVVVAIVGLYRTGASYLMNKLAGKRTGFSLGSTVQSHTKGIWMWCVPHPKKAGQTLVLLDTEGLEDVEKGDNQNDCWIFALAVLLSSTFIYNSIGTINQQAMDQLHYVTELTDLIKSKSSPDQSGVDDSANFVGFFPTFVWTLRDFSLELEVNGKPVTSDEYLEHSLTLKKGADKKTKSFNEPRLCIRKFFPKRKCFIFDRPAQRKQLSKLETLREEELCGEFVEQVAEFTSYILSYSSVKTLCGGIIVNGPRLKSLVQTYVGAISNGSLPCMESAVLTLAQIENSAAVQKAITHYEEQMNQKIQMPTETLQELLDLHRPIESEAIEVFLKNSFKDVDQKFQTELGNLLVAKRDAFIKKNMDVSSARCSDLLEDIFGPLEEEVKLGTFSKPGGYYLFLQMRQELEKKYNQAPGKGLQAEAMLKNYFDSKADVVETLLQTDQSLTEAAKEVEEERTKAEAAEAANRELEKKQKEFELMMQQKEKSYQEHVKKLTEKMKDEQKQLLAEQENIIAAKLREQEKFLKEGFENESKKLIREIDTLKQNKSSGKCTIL

Flag-GBP2^R48A (mouse) = biological target: T2, Flag-GBP2^R48A (mouse) (UniProt Q9Z0E6); assay: co-IP
T2 sequence: T1 sequence with R48A, A51K

## HA-PAPL (HA-tagged poly(A) polymerase catalytic subunit of ECTV) (from UniProt Q8JLG4 1-479)
Flag-GBP2^K51A (mouse)
  binding: no binding
Flag-GBP2^R48A (mouse)
  binding: binds
